SMILES strings stand for the structures. About 220 (0.56%) of roughly 39,000 compounds showed activity. This is one part of the list.
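Note: static incubation at 37 °C against the wild-type strain, values averaged over two biological replicates.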

The test system of the assay is Escherichia coli K-12 BW25113. Put plainly: relative growth (OD600 normalised to plate interquartile mean) (fraction); higher = less growth inhibition, active = 0.2 or less. The note with it: 50 µM; LB; incubation time: overnight (16-24 h).
For `C[C@H](CO)N1C[C@H](C)[C@H](CN(C)Cc2ccccc2)Oc2ncc(-c3cccc(C(F)(F)F)c3)cc2C1=O`, the relative growth is inactive: 0.969. The result for `C[C@@H]1CCCCO[C@@H](CN(C)S(=O)(=O)c2ccc(Cl)cc2)[C@H](C)CN([C@H](C)CO)C(=O)c2cc(NC(=O)Nc3ccc4c(c3)OCO4)ccc2O1` reads inactive: 1.01; that for `CN(C)C1C(O)=C(C(N)=O)C(=O)C2(O)C(O)=C3C(=O)c4c(O)ccc(Cl)c4C(O)C3CC12.Cl` (stereo not drawn), active: 0.0565; that for `C[C@@H]1CCCCO[C@@H](CN(C)Cc2ccc(C(F)(F)F)cc2)[C@@H](C)CN([C@@H](C)CO)C(=O)c2cc(NC(=O)Nc3cccc4ccccc34)ccc2O1`, inactive: 0.99.

Regarding `C=CCOC(=O)[C@@H]1[C@H]2C(=O)O[C@H](c3ccccc3)[C@H](c3ccccc3)N2[C@H](c2ccc(OCCOC(=O)[C@@H]3C[C@@H]4C(=O)N5CCC[C@H]5C(=O)N4[C@@H]3c3cccc(OCCO)c3)cc2)[C@@]12C(=O)Nc1ccc(I)cc12`, the relative growth was inactive: 1.05. Regarding `O=c1cn[nH]c(NC2CCCC2)n1`, the relative growth is inactive: 0.944. Then `Cc1noc(C)c1NC(=O)Nc1cccc2c1O[C@@H](CN(C)Cc1ccc(C(F)(F)F)cc1)[C@H](C)CN([C@@H](C)CO)C2=O`, with inactive: 0.965; and `N=C(N)Nc1nc2ccccc2[nH]1`, with inactive: 1.06. For the compound `COCC#Cc1ccc([C@@H]2[C@@H](CO)N3C(=O)CN(C(=O)c4cccnc4)C[C@@H]23)cc1`, the relative growth is inactive: 0.991. For the compound `C[C@H]1CN([C@@H](C)CO)C(=O)c2cccc(NC(=O)C3CCOCC3)c2O[C@@H]1CN(C)C(=O)Nc1ccccc1`, the relative growth was inactive: 1.03. Regarding `C[C@@H]1CN([C@H](C)CO)C(=O)c2c(c3ccccc3n2C)-c2ccccc2CO[C@H]1CN(C)C(=O)Nc1ccc(-c2ccccc2)cc1`, the relative growth was inactive: 1.03. Then `C[C@H]1CN([C@@H](C)CO)C(=O)c2cc(NC(=O)Nc3cccc4ccccc34)ccc2O[C@@H]1CN(C)Cc1ccncc1`, with inactive: 0.996; and `CC(C)NC(=O)NCC[C@H]1CC[C@@H](NC(=O)CN(C)C)[C@@H](CO)O1`, with inactive: 1; and `C[C@@H]1CN([C@@H](C)CO)C(=O)c2cc(NC(=O)c3ccncc3)ccc2O[C@H]1CN(C)Cc1ccncc1`, with inactive: 0.991. For `COc1ccc(OC)c([C@H]2C(C(=O)c3c(C)nc4c(C)cccn34)=C(O)C(=O)N2CCN2CCOCC2)c1`, the relative growth is inactive: 0.996.

Turning to `CCCC#Cc1cnc2c(c1)C(=O)N([C@@H](C)CO)C[C@@H](C)[C@@H](CN(C)S(=O)(=O)c1cccc(OC)c1)O2`, the relative growth is inactive: 1. `COc1cc2c(cc1OC)CN(C(=O)[C@@H]1[C@H]3C(=O)O[C@H](c4ccccc4)[C@H](c4ccccc4)N3[C@H](c3ccc(OCCO)cc3)[C@@]13C(=O)Nc1ccc(C#CC4(O)CCCCCC4)cc13)CC2`: the relative growth was inactive: 1.09.

For the compound `CCO[C@@H]1OC(C(=O)N2CCOCC2)=C[C@H](c2coc3ccccc3c2=O)[C@H]1CCCOC(=O)NCCCCCC(=O)NO`, the relative growth is inactive: 0.992. The result for `COc1ccc(S(=O)(=O)N(C)C[C@H]2Oc3cc(C#CC4CCCC4)ccc3S(=O)(=O)N([C@@H](C)CO)C[C@H]2C)cc1` reads inactive: 1.04.

With `C[C@@H]1CN([C@H](C)CO)C(=O)c2cc(NC(=O)Nc3ccc(C(F)(F)F)cc3)ccc2O[C@@H](C)CCCCO[C@@H]1CN(C)C(=O)Nc1cccc2ccccc12`, the relative growth is inactive: 1.05. With `COc1cc(/C=C/C(=O)CC2=N/C(=N/Cc3ccc4c(c3)OCO4)S[C@H](c3ccc(O)c(OC)c3)C2)ccc1O`, the relative growth is inactive: 1.02. Then `C=CCSCC1Nc2cc(Cl)c(S(N)(=O)=O)cc2S(=O)(=O)N1` (stereo not drawn), with inactive: 1.08; and `O=C(C[C@@H]1CC[C@@H]2[C@H](COC[C@H](O)CN2S(=O)(=O)c2ccccc2)O1)N1CCOCC1`, with inactive: 0.989. As for `CCCN1C[C@H](C)[C@H](OC)CN(C)C(=O)c2ccc(NS(=O)(=O)c3cn(C)cn3)cc2OC[C@@H]1C`, the relative growth was inactive: 1. `C[C@@H]1CCCCO[C@H](CN(C)Cc2ccccc2)[C@H](C)CN([C@H](C)CO)C(=O)c2cc(NC(=O)NC3CCCCC3)ccc2O1`: the relative growth is inactive: 0.988. The result for `C(=N\c1nnc2nc[nH]n12)/c1ccco1` reads inactive: 0.991. The result for `C[C@H](CO)N1C[C@H](C)[C@@H](CN(C)S(=O)(=O)c2ccc(F)cc2)OCCCC[C@H](C)Oc2ccc(NC(=O)NC3CCCCC3)cc2C1=O` reads inactive: 1.01. With `C[C@@H]1CN([C@H](C)CO)S(=O)(=O)c2ccc(C#CCN(C)C)cc2O[C@H]1CN(C)C(=O)c1ccccc1F`, the relative growth is inactive: 0.962. As to `COC(=O)c1c2oc(c1C(=O)OC)C(=O)N[C@H](Cc1ccccc1)Cn1cc(nn1)CNC(=O)[C@@H](Cc1ccccc1)NC(=O)N[C@@H](COC(=O)NCCCCCC(=O)NO)CC2`, the relative growth was inactive: 0.987. For `C[C@H]1CN([C@@H](C)CO)C(=O)c2cccc(NC(=O)C3CCCCC3)c2O[C@H]1CN(C)S(=O)(=O)c1cn(C)cn1`, the relative growth was inactive: 1.05.

Consider `C[C@@H]1CN([C@H](C)CO)C(=O)c2cccc(NC(=O)CCCCCC(=O)Nc3ccccc3N)c2O[C@H]1CN(C)Cc1ccc(C(F)(F)F)cc1`, for which the relative growth was inactive: 0.968.

As for `C[C@@H](NC(=O)N(C)C[C@@H]1OCc2ccccc2-c2ccccc2C(=O)N([C@@H](C)CO)C[C@@H]1C)c1ccccc1`, the relative growth was inactive: 0.975.

On to `CN(C)CC(=O)N[C@@H]1CC[C@@H](CCNS(=O)(=O)c2ccccc2)O[C@H]1CO`, for which the relative growth was inactive: 1.02.

For `C[C@@H]1CCCCO[C@H](CN(C)C(=O)Cc2ccccc2)[C@@H](C)CN([C@H](C)CO)C(=O)c2cc(NC(=O)CCC(F)(F)F)ccc2O1`, the relative growth was inactive: 0.975. In the case of `C[C@@H]1CN([C@@H](C)CO)C(=O)c2cc(NC(=O)Cc3cn(C)c4ccccc34)ccc2O[C@@H]1CN(C)S(=O)(=O)c1cn(C)cn1`, the relative growth was inactive: 1. Regarding `C[C@@H]1CN([C@H](C)CO)C(=O)c2cc(NC(=O)Nc3ccc4c(c3)OCO4)ccc2O[C@@H](C)CCCCO[C@H]1CN(C)Cc1ccc(Cl)c(Cl)c1`, the relative growth was inactive: 1.01. Then `CCSC(=S)N[C@H]1CCS(=O)(=O)C1`, with inactive: 0.928. Then `C[C@@H]1CN([C@H](C)CO)C(=O)c2cccc(NC(=O)c3ccc(-c4nccs4)cc3)c2O[C@@H]1CN(C)C(=O)Nc1ccccc1`, with inactive: 0.999.

For the compound `O=C(C[C@H]1C=C[C@@H](NS(=O)(=O)c2ccccc2)[C@@H](CO)O1)NCc1ccncn1`, the relative growth was inactive: 0.99. For `CC(C)NC(=O)Nc1ccc2c(c1)C(=O)N([C@@H](C)CO)C[C@@H](C)[C@H](CN(C)Cc1ccc(C(=O)O)cc1)O2`, the relative growth is inactive: 0.988.

As for `COc1cccc(S(=O)(=O)N(C)C[C@@H]2Oc3cc(C4=CCCC4)ccc3S(=O)(=O)N([C@@H](C)CO)C[C@H]2C)c1`, the relative growth was inactive: 1.08. On to `COCC(=O)Nc1ccc2c(c1)C(=O)N(C)C[C@H](OC)[C@H](C)CN(C(=O)c1ccccc1F)[C@H](C)CO2`, for which the relative growth is inactive: 1.01. Then `CCOC(=O)c1c[nH]c(CC(C)=O)nc1=O`, with inactive: 0.999. The result for `C[C@@H]1CN([C@@H](C)CO)S(=O)(=O)c2ccc(-c3cccc(C#N)c3)cc2O[C@@H]1CN(C)C(=O)c1ccncc1` reads inactive: 1.01. The result for `COc1cccc2c1C(=O)c1c(O)c3c(c(O)c1C2=O)CC(O)(C(=O)CO)CC3OC1CC(N)C(O)C(C)O1.Cl` (stereo not drawn) reads inactive: 1.02; that for `COCCOC(=O)N1C(=O)[C@@]2(c3cc(C#CCNC(N)=O)ccc31)[C@H](C(N)=O)[C@H]1C(=O)O[C@H](c3ccccc3)[C@H](c3ccccc3)N1[C@@H]2c1ccccc1OCCO`, inactive: 0.947. Turning to `Cc1ccc(S(=O)(=O)Nc2ccc3c(c2)C(=O)N([C@H](C)CO)C[C@@H](C)[C@H](CN(C)Cc2ccc(Oc4ccccc4)cc2)O3)cc1`, the relative growth is inactive: 1. Regarding `COc1ccc(S(=O)(=O)Nc2ccc3c(c2)C(=O)N([C@@H](C)CO)C[C@H](C)[C@@H](CN(C)C(=O)C2CCCCC2)OCCCC[C@H](C)O3)cc1`, the relative growth was inactive: 0.976. For the compound `COc1ccc(COC[C@]23NC(=S)N[C@H](c4ccccc4O2)[C@H]3CO[Si](C)(C)C(C)(C)C)cc1`, the relative growth is inactive: 0.991. Regarding `Cc1nc(N=Nc2cc(S(=O)(=O)O)c3cc([N+](=O)[O-])cc(S(=O)(=O)O)c3c2)c(COP(=O)(O)O)c(C=O)c1O`, the relative growth is inactive: 0.968. Regarding `Cc1noc(C)c1NC(=O)Nc1cccc2c1O[C@H](CN(C)S(=O)(=O)c1cn(C)cn1)[C@H](C)CN([C@@H](C)CO)C2=O`, the relative growth is inactive: 1.02. With `NC(CSCSCC(N)C(=O)O)C(=O)O` (stereo not drawn), the relative growth is inactive: 0.917. The result for `COC(=O)[C@H](Cc1ccc(N=[N+]=[N-])cc1)N1CC2=C[C@@H](C3CC3)n3c(=O)n(C)c(=O)n3[C@H]2[C@@H]1[C@@H](O)Cc1ccccc1` reads inactive: 0.989.

As for `COc1cccc(S(=O)(=O)N(C)C[C@@H]2Oc3ncc(C#Cc4ccc(F)cc4)cc3C(=O)N([C@H](C)CO)C[C@@H]2C)c1`, the relative growth was inactive: 1.05. In the case of `COc1ccc(CN(C)C[C@@H]2Oc3ccc(NC(=O)Cn4cnnn4)cc3C(=O)N([C@H](C)CO)C[C@H]2C)cc1`, the relative growth was inactive: 0.98. In the case of `COc1ccc(CN(C)C[C@@H]2Oc3ccc(NS(=O)(=O)c4c(C)noc4C)cc3CC(=O)N([C@@H](C)CO)C[C@H]2C)cc1`, the relative growth is inactive: 0.999. `COCC#Cc1ccc2c(c1)O[C@H](CN(C)C(=O)C1CCCCC1)[C@@H](C)CN([C@H](C)CO)S2(=O)=O`: the relative growth is inactive: 1.03. In the case of `CC(C)NC(=O)Nc1cccc2c1O[C@H](CN(C)Cc1ccc(Oc3ccccc3)cc1)[C@@H](C)CN([C@H](C)CO)C2=O`, the relative growth is inactive: 0.985.

The values above are taken from the supplement of paper PMC9446081.
